# Measurements reported in the BET-seq Pho4 binding data (Le et al. 2018).
# This is one part of the list. These are noisy estimates, calculated here from bound and input reads.
# Biological target: T1, Pho4 (S. cerevisiae) (UniProt P07270)
# T1 sequence: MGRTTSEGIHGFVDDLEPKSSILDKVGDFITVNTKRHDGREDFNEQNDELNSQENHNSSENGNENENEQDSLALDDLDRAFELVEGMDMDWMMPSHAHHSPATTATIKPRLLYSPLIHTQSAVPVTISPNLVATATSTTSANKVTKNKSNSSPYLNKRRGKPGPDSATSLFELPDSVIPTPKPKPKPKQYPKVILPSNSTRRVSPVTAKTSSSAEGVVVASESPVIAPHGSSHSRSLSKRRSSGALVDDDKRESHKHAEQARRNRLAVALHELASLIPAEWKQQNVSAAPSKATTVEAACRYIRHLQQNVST
# Test: relative binding free energy (BET-seq); higher = weaker binding
# Details: reference: library average
row,Sequence,relative binding free energy [kcal/mol]
1,TGTTTCACGTGATTCT,0.32
2,AGGGTCACGTGGAACG,0.03
3,GTGTGCACGTGGTACG,-0.15
4,GATGGCACGTGTGATT,-0.04
5,ACGTACACGTGGTGGT,0.03
6,TATTTCACGTGTAAGA,0.25
7,TTGATCACGTGTCTAG,0.14
8,TTTACCACGTGGTATG,-0.16
9,GTAACCACGTGATTGG,0.18
10,TAAGTCACGTGGTTCA,-0.03
11,TGGAGCACGTGCGGGA,-0.08
12,ATGTGCACGTGTGCTC,0.03
13,CATTGCACGTGGGGCA,-0.06
14,AGCGTCACGTGAGTCG,0.27
15,ATGTGCACGTGCGCGT,-0.25
16,GGGGACACGTGATTAG,0.13
17,TATGGCACGTGATTGT,0.04
18,GAGTGCACGTGCTGAT,0.14
19,GTTATCACGTGGTGGC,0.18
20,CTTAACACGTGGGGGA,-0.05
21,TGGAACACGTGCGGAT,0.07
22,TTGGTCACGTGGCACT,-0.06
23,AGAGGCACGTGTGGTA,-0.13
24,GGCGGCACGTGGTGGG,-0.03
25,ATTAGCACGTGGGTTG,-0.16

row,Sequence,relative binding free energy [kcal/mol]
1,GTCGACACGTGAGGGC,0.31
2,GGGGGCACGTGGACAA,-0.14
3,GAGTTCACGTGTTTTG,0.39
4,TTGGCCACGTGTAGTG,-0.05
5,GGTGACACGTGGTGCG,-0.06
6,TATCGCACGTGAGGGA,0.07
7,ATTAACACGTGGAGTG,0.03
8,CTTGTCACGTGAACGG,0.27
9,TTTAGCACGTGGCGTG,-0.11
10,GGGGGCACGTGCATTA,-0.23
11,GTAGGCACGTGACAGG,0
12,GAATGCACGTGGATTT,0.16
13,GTTCACACGTGTTTGG,0.24
14,TTGTGCACGTGATAGT,0.01
15,ATTCTCACGTGTTCTT,0.3
16,GTGGACACGTGTGGAG,0.17
17,AACTACACGTGGGTTG,0.02
18,TGGTACACGTGGCGGA,0
19,GTGTTCACGTGAGTGC,0.33
20,TTTAGCACGTGGTAGC,-0.26
21,TTTGGCACGTGGCAGA,-0.23
22,GTGCGCACGTGTGGGT,-0.07
23,AGGGTCACGTGGATTT,0.09
24,AGGTCCACGTGCGGTG,-0.07
25,ATTTACACGTGCTTTA,-0.05

row,Sequence,relative binding free energy [kcal/mol]
1,GGGAGCACGTGGTTGA,-0.15
2,TTTTCCACGTGATTTG,0.33
3,TCTCGCACGTGAGGGG,0.17
4,TATGTCACGTGACTGT,0.19
5,TTGATCACGTGTTCGT,0.18
6,TGGCGCACGTGGTGCT,-0.2
7,CTCTGCACGTGGTTGG,-0.02
8,GGGTACACGTGTGAGT,0.18
9,ATTGTCACGTGAGGTC,0.16
10,GGTGCCACGTGTGTGG,0.07
11,GGGTGCACGTGTCGGA,0.1
12,GGGTTCACGTGACTTT,0.3
13,CATAGCACGTGGTGGT,-0.15
14,CGCTGCACGTGAGGGG,0.06
15,GAACTCACGTGGGCGG,0.26
16,AAGTTCACGTGTCGTG,0.1
17,TGGAGCACGTGGGGTC,-0.09
18,GGGTGCACGTGGGCAC,-0.15
19,GGTTTCACGTGTCTGT,0.37
20,GGGCACACGTGCGGTG,-0.01
21,CTATGCACGTGGTGGA,-0.06
22,TCGTTCACGTGTTTAT,0.24
23,CGTGACACGTGGCGTG,-0.11
24,TCTGTCACGTGGTCAG,-0.04
25,TGGTTCACGTGGTAAC,0.2

row,Sequence,relative binding free energy [kcal/mol]
1,AGTACCACGTGTCGGG,0.01
2,ATGGTCACGTGAAGAG,0.35
3,TGAGTCACGTGAGGGC,0.16
4,TTGGGCACGTGCCCGT,-0.19
5,GTAAGCACGTGGTGGG,-0.09
6,AATGTCACGTGAGGAT,0.3
7,CGCGTCACGTGAGGGG,0.12
8,ATAAGCACGTGGAGTA,-0.16
9,GTAGACACGTGGGTTC,-0.14
10,TGAGGCACGTGGAAGG,-0.05
11,TGGGTCACGTGGCGCG,0.1
12,AGAGTCACGTGGATTG,0.12
13,GGTTACACGTGTCTGC,0.28
14,AGTGTCACGTGAGACT,0.37
15,TCGGGCACGTGTCAGT,0.01
16,TATCTCACGTGGAGTA,0.23
17,TATCTCACGTGATGGT,0.31
18,GAGGGCACGTGTCGAG,-0.05
19,TAATTCACGTGTATTG,0.18
20,GGTTACACGTGTTGAG,0.26
21,CAGTTCACGTGTGCGT,0.24
22,ACGGGCACGTGTGTTG,-0.14
23,TATGTCACGTGTTATT,0.07
24,GGGGGCACGTGCGGTC,-0.15
25,GTTGTCACGTGATTTC,0.46

row,Sequence,relative binding free energy [kcal/mol]
1,GCGTGCACGTGCGGTG,-0.03
2,TAGGTCACGTGATATG,0.13
3,TGCTGCACGTGTCGTG,-0.02
4,TGGGGCACGTGGCAAA,-0.23
5,TTGGTCACGTGTTTCC,0.17
6,ATGTGCACGTGTGTTG,-0.03
7,TGGAGCACGTGCGGCT,-0.1
8,CGTGGCACGTGCGGGC,-0.11
9,TGCCTCACGTGGGATT,0.23
10,TTTTTCACGTGATACT,0.21
11,TGCTGCACGTGATGGT,-0.01
12,GTGCTCACGTGATTTA,0.3
13,GGTTGCACGTGCAGGC,0.16
14,AGGGACACGTGAAGTG,0.14
15,GCAGTCACGTGATTGT,0.29
16,ATGCACACGTGGGGTA,-0.13
17,AAAGTCACGTGAAGAT,0.31
18,TGGTCCACGTGGGGGA,-0.11
19,GTATTCACGTGCTGGC,0.24
20,TTATACACGTGCATGT,-0.04
21,TGCCTCACGTGGGTTT,0.07
22,GGAGTCACGTGCTTTA,0.19
23,TGCGTCACGTGTGAAG,0.03
24,TGGAGCACGTGTTTCG,-0.01
25,GGGTGCACGTGGGGGT,-0.07

row,Sequence,relative binding free energy [kcal/mol]
1,ACGGTCACGTGGGATG,-0.07
2,TGGAACACGTGCAGGG,0.04
3,GGGAACACGTGGGTTT,-0.06
4,AGTTACACGTGTAAGG,0.1
5,ATTGACACGTGATGCT,0.1
6,AGTCTCACGTGTAGTG,0.1
7,GTAGGCACGTGACGGT,0.05
8,TGGATCACGTGAGTTG,0.35
9,ACAGACACGTGTTGTT,0.05
10,TGATGCACGTGACGTT,0.09
11,TTGTGCACGTGATATG,0.05
12,TGGTTCACGTGAATGT,0.37
13,ATGCGCACGTGATGGT,-0.12
14,ATGAGCACGTGGGATT,-0.1
15,CGGTTCACGTGGGTGA,0.25
16,GGTGTCACGTGGGGAC,0.01
17,ATGACCACGTGTGGGG,-0.04
18,ATGGGCACGTGTGACT,-0.01
19,TTTGACACGTGGTAGA,-0.07
20,CGCTGCACGTGGGTTA,-0.14
21,TGGTCCACGTGTTATT,0.06
